In PubChem BioAssay AID504706 (National Center for Advancing Translational Sciences (NCATS), 2011):
Screen size: about 320,000 compounds; about 200 (0.062%) were called active. Inconclusive means that the source gave no clear call. Such entries were picked first, then a sample of the others. Calls come from the whole dose curve; as a rule, active = well fitted activation curve with a large enough effect; inconclusive = small, poorly fitted or top-dose-only effect; inactive = no such curve, though single readings can be large or run the other way. No potency is given beside an inconclusive call; the fits are too rough.
Potency is the fitted concentration of half-maximal effect; tags give direction and shape of the fitted curve.

Assay: qHTS assay for re-activators of p53 using a Luc reporter; note: nearly all actives have a fitted effect of over 45% in size; for activity change, positive = activation: % of control where 0% means no effect
Conditions: H1299 p53-A138V BP100-luciferase reporter, luminescence, 24 h; series mostly up to 92.2 µM; activity change, positive = activation: at the top concentration
Summary of the method: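 H1299 (p53-null), stable ts p53-A138V + BP100-Luc; 1000 cells/well, Opti-MEM/10% FBS; cpd 4 pt, 1:5; 24 h, 37 deg C, 5% CO2; detection reagent 10 min RT; luminescence.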
For `O=C(CN1CCCCC1)Nc1ccccc1NC(=O)CN1CCCCC1`, the Potency was inconclusive [activator, single point]. For `O=[N+]([O-])c1ccc(N2CCN(c3ccccc3O)CC2)c(Cl)c1`, the Potency was inconclusive [activator, partial curve, poor fit]. For `CC1=NN(c2ccc(N)cc2)C(=O)C1`, the “activity change, positive = activation” value was inactive: -2.22%. In the case of `CCn1nnc(NC(=O)Cc2ccc(Cl)cc2)n1`, the “activity change, positive = activation” value was inactive: -2.92%. In the case of `O=C(Nc1ccc2c(c1)OCO2)Nc1ccc(F)cc1F`, the Potency was inconclusive [activator, partial curve, poor fit]. For `CCC(Oc1ccccc1)C(=O)Nc1ccc(-c2nnc(-c3ccco3)o2)cc1` (configuration not stated), the Potency was inconclusive [activator, full curve, poor fit]. With `Cc1nc(N)sc1-c1csc(Nc2ccccc2)n1` the Potency was inconclusive [activator, partial curve, poor fit]. In the case of `FC(F)Sc1ccc(NC(=S)NC2CCCCC2)cc1`, the Potency was inconclusive [activator, full curve, poor fit]. In the case of `COc1ccccc1OCC(=O)N/N=C/C=C/c1ccc([N+](=O)[O-])o1`, the Potency was inconclusive [activator, single point]. With `COc1cc(C2NC(=S)NC(O)(C(F)(F)F)C2C(=O)c2cccs2)cc(OC)c1O` (configuration not stated) the Potency was inconclusive [activator, partial curve, poor fit]. For `COc1ccc2c(c1)CCc1c-2n[nH]c1C(=O)NCCC(C)C`, the Potency was inconclusive [activator, full curve, poor fit]. In the case of `COc1ccc(C)c(NC(=O)NCCc2cnc[nH]2)c1`, the Potency was inconclusive [activator, single point]. For `Cn1ncc(Br)c1C(=O)OCC(=O)Nc1nc(-c2ccccc2)cs1`, the Potency was inconclusive [activator, partial curve, poor fit]. In the case of `COc1cccc(/C=N/NC(=O)c2ccc([N+](=O)[O-])cc2Cl)c1O`, the Potency was inconclusive [activator, partial curve, poor fit]. With `O=C(O)CCc1ccc(-c2ccccc2)n1-c1cccc(C(=O)O)c1` the Potency was inconclusive [activator, full curve, poor fit]. For `Cc1ccc([C@H]2C(C(=O)O)=CC[C@@H](c3ccc(Cl)cc3)N2S(=O)(=O)c2ccccc2C)cc1`, the “activity change, positive = activation” value was inactive: 1.22%. For `CCOc1ccccc1NC(=O)c1ccccc1-c1nc(-c2ccccc2OC)no1`, the “activity change, positive = activation” value was inactive: -3.22%. In the case of `Nc1nc(SCc2ccccc2)[nH]c(=O)c1-c1ccccc1`, the Potency was inconclusive [activator, partial curve, poor fit]. For `COC(=O)c1cc(C)nc(Sc2ccccc2N)n1`, the “activity change, positive = activation” value was inactive: 11.8%. In the case of `Cc1c(NC(=O)COC(=O)c2cc3c4ccccc4n(C)c3s2)c(=O)n(-c2ccccc2)n1C`, the “activity change, positive = activation” value was inactive: -15.2%. In the case of `Nc1nc(Nc2ccc(Cl)cc2)nc2ccccc12`, the Potency was inconclusive [activator, full curve, poor fit]. In the case of `CCOC(=O)c1sc(=NC(=O)c2cccc(OC)c2)n(C)c1C`, the Potency was inconclusive [activator, partial curve, poor fit]. In the case of `C=CCSc1nnc(NC(=O)C2=COCCO2)s1`, the Potency was inconclusive [activator, partial curve, poor fit]. With `C/C(=N\OC(=O)NC1CCCCC1)c1sc(-c2ccccc2)nc1C` the Potency was inconclusive [activator, full curve, poor fit]. With `NNC(=O)c1cccc(COc2ccccc2Br)c1` the Potency was inconclusive [activator, partial curve, poor fit]. With `Cc1onc(C(=O)NC2CCCCC2)c1[N+](=O)[O-]` the Potency was inconclusive [activator, partial curve, poor fit]. In the case of `COc1ccc(OCC(=O)O/N=C(\N)Cc2cccs2)cc1`, the Potency was inconclusive [activator, full curve, poor fit]. For `Fc1cccc(F)c1/C=C/c1ccc2ccccc2n1`, the Potency was active: 22.4 µM. For `O=c1c2c3c(sc2nc(NCCO)n1Cc1ccco1)CCCCC3`, the Potency was inconclusive [activator, full curve, poor fit]. In the case of `CCOC(=O)C1(CCOc2ccccc2)CCN(Cc2cnc(SC)nc2)CC1`, the “activity change, positive = activation” value was inactive: 3.85%. In the case of `CCC(=O)Nc1cccc(NC(=S)NC(=O)c2ccccc2)c1`, the Potency was inconclusive [activator, partial curve, poor fit]. In the case of `COc1ccc(Nc2nc(N)c3ccccc3n2)c(OC)c1`, the Potency was inconclusive [activator, partial curve, poor fit]. In the case of `Cc1cccc2cc3c(N)c(C(=O)N4CCc5ccccc54)sc3nc12`, the Potency was inconclusive [activator, single point]. With `COc1ccc(OCc2cc(C(=O)N3CCOCC3)no2)c(Cl)c1` the Potency was inconclusive [activator, partial curve, poor fit]. With `CN(C)c1ccc(NC(=O)c2ccc([N+](=O)[O-])cc2Cl)cc1` the Potency was inconclusive [activator, partial curve, poor fit]. In the case of `Cc1noc(C)c1CSc1nnc(-c2cc(Cl)ccc2Cl)n1N`, the Potency was inconclusive [activator, partial curve, poor fit]. With `O=C(O)c1ccccc1CSc1nc2ccccc2s1` the Potency was inconclusive [activator, full curve, poor fit]. For `COc1ccccc1Nc1nc(N)nc(-c2oc3ccccc3c2C)n1`, the “activity change, positive = activation” value was inactive: 2.74%. With `O=C(CCCC(=O)OCC(=O)c1ccc(F)cc1)Nc1cc(C(F)(F)F)ccc1Cl` the “activity change, positive = activation” value was inactive: -0.79%. With `CN(C)c1ccc(C2=NOC(CN3C(=O)c4ccccc4S3(=O)=O)C2)cc1` (configuration not stated) the Potency was inconclusive [activator, partial curve, poor fit]. With `O=C(CCCc1nc2ccccc2s1)N1CCN(c2ccccc2)CC1` the “activity change, positive = activation” value was inactive: 4.76%. In the case of `O=C(CN1N=C(c2ccccc2)CCC1=O)NCCN1CCc2ccccc2C1`, the Potency was inconclusive [activator, partial curve, poor fit].
